The full ranking holds about 33,000 sequences; the median of “E-score (-0.5 to 0.5)” is about -0.016, and the highest 2% start at about 0.31. The list shows a part of the results.
The sequences below were run against Cst6 (UniProt P40535) (assay: PBM E-score (8-mer binding enrichment) (E-score (-0.5 to 0.5)); higher = stronger / more preferred TF binding; most listed sequences are background and not binding sites). Details: protein concentration: 200 nM; construct: GST-DNA-binding domain.
Method in brief: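 Full-length yeast transcription factors or their DNA-binding domains, GST-tagged and expressed with PURExpress, were applied at about 100-200 nM to universal all-10-mer Agilent arrays. These arrays had been made double-stranded by primer extension on fresh or once-stripped slides. Detection used fluorescent anti-GST, normalisation used masliner, and E-scores for ungapped eight-base words pooled with reverse complements came from the Universal PBM Analysis Suite.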

Sequence | PBM E-score
CTCAGGTA | -0.0602
ACGGCTCC | 0.256
ATTAATAC | 0.272
GAGGCCTC | -0.372
ACAACGAC | 0.0723
CCTAGGCA | -0.14
ACGTTAGC | 0.294
ATGTACTG | -0.0589
CAGTAAAC | 0.049
ACGCAGGC | -0.112
AAGTCCTG | -0.238
TAAGGTGA | 0.22
CGAAGTAG | -0.0702
CTTTACGA | 0.0649
CGGTACCA | -0.256
ATATTAAA | 0.355
AAAAAGGA | 0.00304
TGTTAAAA | 0.211
CCTGAAGC | -0.283
GAACACCC | -0.245
GCGACAGA | -0.0549
TTGTACAA | 0.107

Sequence | PBM E-score
AGGTAAAA | 0.171
GCAGCTGA | -0.0324
AATCTTTG | 0.117
CTACAAAA | 0.214
TGCTCCCA | -0.243
GGGTGCCA | -0.137
CTAGGTCC | -0.233
AGCCACCG | -0.0861
CTAGATAC | 0.0288
AATCGGAG | -0.108
CAAGACAA | 0.0519
AAAACTAT | 0.131
AGTAAAGA | 0.171
AATTTATC | 0.312
ACCTGGAC | -0.373
GAAAGGCC | 0.0943
GGGAACCA | -0.157
GGGGACTA | -0.369
CTGGTACA | -0.0868
CAAAACAG | 0.0442
ATAGCAGA | 0.0549
AAGCCGCA | 0.245

Sequence | PBM E-score
AGCCAAGC | -0.294
GCTCTCAA | -0.057
GATTCCCC | -0.24
AACTGTTG | -0.138
GAAGTCGA | 0.0342
ATGGTTTG | -0.0135
AGCCGTCC | 0.0267
ACATCCAC | 0.141
AAAAATAG | 0.118
AATGGTAC | -0.0975
GGTGCTGA | -0.228
GAGTGTTA | 0.071
ACTTTGAT | 0.188
AAAGTACA | 0.208
CAACCTTC | -0.0925
AGTAAGCA | -0.013
GCTTTTCC | -0.14
TCTCGCAA | -0.112
GAGCATCA | -0.00777
TCTGATCA | -0.00903
GAGGGCTA | -0.27
AGCTCCTA | -0.364

Sequence | PBM E-score
CTATGCGC | -0.00647
CTTGTAGC | 0.0259
ACGCGGAC | -0.0478
GCTGGTAC | -0.221
CCACGCCA | -0.00586
GTCGTAGA | 0.0253
AGCCCCCT | -0.303
CATCCAGA | -0.102
CCACACAA | -0.0352
CGTGGTGA | 0.03
ACTAGCAA | 0.0267
CGGCGCGA | 0.35
AGCCCACT | -0.227
ACCCGATA | -0.138
ACCGGATG | -0.0495
AGGATGAT | 0.245
CGACGCGA | -0.0414
GGCATCCC | -0.269
GGCTCAGA | -0.0954
CCGGGTCG | -0.229
CGGCAAGA | -0.013
ACGGTGCT | -0.0965

Sequence | PBM E-score
GGCACTAA | 0.133
CATCATAG | 0.326
CCTACCAC | -0.258
ATAGCGGG | -0.176
GGACACAA | 0.173
CAGTCGCG | -0.25
CACGTTTC | -0.0321
ATCACTGG | 0.00911
ATGCTCAA | -0.0103
ATCTTGCG | 0.0154
ACGCAGTA | 0.026
GGATGTCA | 0.277
CTCTGCTA | -0.0841
CCGTGAGA | -0.235
GGAGAGAC | -0.228
AGCTTGTA | -0.00081
ACTTAGAC | 0.136
GCCCTACA | -0.228
ATAAAGAT | 0.192
ACTTAAAT | 0.0864
ACTGTAAG | 0.0881
